Reference: PubChem BioAssay AID1030 (National Center for Advancing Translational Sciences (NCATS), 2008)
Several values for one entry are separate records, joined by “and”; a condition that tells them apart may be missing. Equal values may be shown once. In all, about 220,000 compounds went through this assay and about 16,000 (7.3%) were called active. Inconclusive means that the source gave no clear call. Such entries were picked first, then a sample of the others. Calls follow the shape of the dose curve; as a rule, active = well fitted inhibition curve with a large enough effect (not every such curve was filed as active); inconclusive = small, poorly fitted or top-dose-only effect, or another doubt; inactive = no such curve, though single readings can be large or run the other way. No potency is given beside an inconclusive call; the fits are too rough.

The molecules below were run against Aldehyde dehydrogenase 1A1 (Homo sapiens) (UniProt P00352) (assay: qHTS Assay for Inhibitors of Aldehyde Dehydrogenase 1 (ALDH1A1)). Conditions: Purified ALDH1A1, NADH fluorescence, propionaldehyde substrate; series mostly up to 75.3 µM; activity, negative = inhibition: at the top concentration.
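For activity, negative = inhibition in this document: plate controls were no enzyme wells and a reference inhibitor.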
Potency is read from the fitted curve at half-maximal effect; tags tell the direction and shape of the fitted curve.

Sequence of UniProt P00352 (P00352 whole entry, looked up): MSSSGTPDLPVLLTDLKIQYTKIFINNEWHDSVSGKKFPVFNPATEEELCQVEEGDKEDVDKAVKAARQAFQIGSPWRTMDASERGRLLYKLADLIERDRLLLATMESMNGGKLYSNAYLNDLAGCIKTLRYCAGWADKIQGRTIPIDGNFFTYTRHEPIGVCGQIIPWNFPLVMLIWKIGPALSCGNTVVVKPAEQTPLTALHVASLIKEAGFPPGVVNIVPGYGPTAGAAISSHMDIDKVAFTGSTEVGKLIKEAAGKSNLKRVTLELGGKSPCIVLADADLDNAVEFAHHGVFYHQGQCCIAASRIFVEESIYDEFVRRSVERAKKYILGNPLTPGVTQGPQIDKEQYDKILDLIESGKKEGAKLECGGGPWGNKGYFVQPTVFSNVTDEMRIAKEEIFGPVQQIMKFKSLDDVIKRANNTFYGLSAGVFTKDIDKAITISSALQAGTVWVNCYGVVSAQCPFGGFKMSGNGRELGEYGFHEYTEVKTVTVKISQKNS

SMILES | activity, negative = inhibition | Potency
Cc1ccccc1-c1cncnc1NCCN1CCOCC1 | inactive: 5.79% | 
COc1ccc(CN2CCN(CCc3ccccc3)C(CCO)C2)c(O)c1 (stereo unspecified) |  | inconclusive [inhibitor, single point]
CCC(=O)N1CCc2cc(S(=O)(=O)NCCCOC)ccc21 |  | active: 20 µM
N#Cc1ccc(Nc2ccccc2)c(N)c1 |  | inconclusive [inhibitor, single point]
O=[N+]([O-])c1cccc(CNc2ccc3c(c2)CCC3)c1 |  | active: 22.4 µM
CC(=O)N(C)c1nc(-c2ccc(Cl)cc2)cs1 | inactive: 1.17% | 
COc1cc(/C=C/C(=O)OCC(=O)Nc2ccccc2Sc2ccc(Cl)cc2)ccc1O |  | inconclusive [inhibitor, single point]
O=C1C2CC=CCC2C(=O)N1c1ccc(OCC(O)Cn2nnc3ccccc32)cc1 (stereo unspecified) |  | inconclusive [inhibitor, single point]
COC(=O)c1ccc(CSc2nnc(Nc3ccccc3OC)s2)o1 |  | active: 25.1 µM
O=C(NC1CC1)C1C2C3C4CC5C3C5C4C12 (stereo unspecified) | inactive: 4.12% | 
CCC(OC(=O)c1nsc(Cl)c1Cl)C(=O)NCc1ccco1 (stereo unspecified) |  | inconclusive [inhibitor, single point]
CC(C)=C1C(=O)NN(c2ccc(C)c(Cl)c2)C1=O | inactive: 9.83% | 
COc1cc(/C=N/O)cc(Br)c1OS(=O)(=O)c1ccc(C)cc1 |  | active: 1.58 µM
Cc1ccc2cc(CN(Cc3cccs3)Cc3nnnn3CC3CCCO3)c(=O)[nH]c2c1C (stereo unspecified) |  | inconclusive [inhibitor, partial curve]
NNC(=O)CSCc1nc(-c2ccc(Cl)cc2)cs1 |  | active: 0.708 µM
O=C(CN(Cc1ccccc1F)S(=O)(=O)c1ccc(Cl)cc1)NCCCO | inactive: 4.56% | 
COC(=O)c1ccc(C(=O)NC(=S)Nc2nc3c(s2)CCCC3)cc1 |  | inconclusive [inhibitor, single point]
CCc1ccccc1NC(=O)c1ccc(-n2c(C)ccc2C)cc1 | inactive: -8.41% | 
COc1ccc(-c2ccc3c(N)c(C(=O)c4cccc(OC)c4)sc3n2)cc1 | inactive: 7.76% | 
O=C(O)c1cccc(S(=O)(=O)N2CCCC2)c1 | inactive: 1.26% | 
Cc1cccc(NC(=O)Nc2ccc3c(c2)N(C)C(=O)CS3)n1 |  | inconclusive [inhibitor, single point]
COc1ccc(NC(=O)C(c2ccc(C)cc2)N(C)C(=O)Cc2cccs2)cc1 (stereo unspecified) |  | inconclusive [inhibitor, single point]
O=C(O)c1ccc(-n2c(-c3cc(-c4ccco4)[nH]n3)n[nH]c2=S)cc1 |  | inconclusive [inhibitor, single point]
COc1ccc2nc(-c3ccc(N)cc3)[nH]c2c1 |  | active: 6.31 µM
CSc1nc(-c2ccccc2)nc(NC(=O)C(C)C)c1C(C)=O | inactive: 5.48% | 
CCOCC(=O)Nc1nc2ccc(S(C)(=O)=O)cc2s1 |  | active: 17.8 µM

SMILES | activity, negative = inhibition | Potency
C/C(=N\NC(=O)Cc1csc(N2CCOCC2)n1)c1ccccc1 | inactive: 1.37% | 
Cc1ccccc1Nc1nc(N)nc(-c2oc3ccccc3c2C)n1 | inactive: 2.35% | 
O=C(CN1CCOCC1)Nc1cc(Cl)ccc1Cl | inactive: -0.628% | 
CN(C)S(=O)(=O)c1cccc(-c2nnc(SCc3cc(Cl)cc4c3OCOC4)n2N)c1 |  | active: 25.1 µM
Cc1cccc2nc(CSc3nnnn3-c3ccccc3)cn12 |  | active: 10 µM
Clc1ccc(CN2CCC(Cc3ccccc3)CC2)cc1 |  | inconclusive [inhibitor, single point]
COc1ccc(C(=O)CCc2nc3ccccc3s2)cc1 |  | inconclusive [inhibitor, single point]
O=C(c1ccco1)N1N=C(c2cccs2)CC1c1ccc(F)cc1 (stereo unspecified) |  | active: 20 µM
C/C(CC(=O)Nc1ccc(N(C)C)cc1)=N\NC(=O)c1ccc([N+](=O)[O-])cc1Cl |  | inconclusive [inhibitor, single point]
O=C1CC[C@@H](CN(Cc2ccccn2)Cc2nc(-c3ccc(C(F)(F)F)cc3)no2)N1 | inactive: 6.85% | 
OC(CNCCC1C=Nc2ccccc21)Cn1c2ccc(Cl)cc2c2cc(Cl)ccc21 (stereo unspecified) |  | inconclusive [inhibitor, single point]
O=C(/C=C/c1ccccc1Cl)c1ccccc(=O)c1O | inactive: -4.56% | 
O=S(=O)(c1ccccc1F)N1CCN(Cc2nc3ccccc3[nH]2)CC1 |  | active: 11.2 µM
COc1ccc(Br)cc1/C=C/C(=O)NCC(=O)O |  | inconclusive [inhibitor, single point]
CC(C)Cn1c(N)c(C(=O)COC(=O)c2c(F)cccc2F)c(=O)n(C)c1=O |  | active: 11.2 µM
CCCCC(=O)Nc1ccc(C(=O)Nc2nc(CC(=O)OCC)cs2)cc1 | inactive: -7.36% | 
C[C@@H](C(=O)Nc1ccc2ccccc2c1)[C@H]1C[C@]1(C)[C@H](NC(=O)OCc1ccccc1)c1ccccc1 |  | active: 4.47 µM and active: 12.6 µM
Cc1ccc(S(=O)(=O)N2CCN(CC(=O)N/N=C/c3cc([N+](=O)[O-])ccc3Cl)CC2)cc1 |  | inconclusive [inhibitor, single point]
CCN(C(=O)COC(=O)c1cnc(C)cn1)C1CCCCC1 |  | inconclusive [inhibitor, single point]
O=C(c1ccccc1)c1nc[nH]c1C(=O)Nc1ccccn1 |  | inconclusive [inhibitor, single point]
CN(C)c1nc(N(C)C)nc(N(C#N)CN2C(=O)c3ccccc3S2(=O)=O)n1 |  | active: 20 µM
Cc1cccc(N(Cc2cc3ccccc3[nH]c2=O)S(=O)(=O)c2ccccc2)c1 |  | inconclusive [inhibitor, single point]
CCOC(=O)/C(C#N)=C/c1cn(CCC(=O)O)nc1-c1cccc(Cl)c1 |  | inconclusive [inhibitor, single point]
CC(C)NC(=O)CN1C(=O)C(=O)c2ccccc21 | inactive: -4.8% | 
Nc1ccc(-c2cc(-c3cccc(N)c3)nc(-c3ccccc3)n2)cc1 |  | inconclusive [inhibitor, single point]
